Results published in PubChem BioAssay AID686979 (National Center for Advancing Translational Sciences (NCATS), 2013).
Among all 420,000 compounds or so, about 50,000 (12%) were called active. This list was built around the results that the source calls inconclusive (neither active nor inactive); the mix of calls is not that of the screen. The call rests on the fitted dose curve; in most records, active means well fitted inhibition curve with a large enough effect; inconclusive means small, poorly fitted or top-dose-only effect; inactive means flat fitted curve, though single readings scatter. Potencies of inconclusive entries are left out as doubtful fits.

Test: qHTS for Inhibitors of human tyrosyl-DNA phosphodiesterase 1 (TDP1): qHTS in cells in presence of CPT; further: nearly all actives have a fitted effect of over 55% in size
Settings: chicken DT40 Tdp1-/-;hTDP1 cells + 20 nM CPT, ATP luminescence, 48 h; activity change, negative = growth inhibition: at 46.2 µM (top of the series)
In short: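 Chicken DT40 Tdp1-/- cells stably complemented with human TDP1 were seeded at 400 cells/well in medium containing 20 nM camptothecin, exposed to pin-transferred compounds, and grown at 37 °C for at least 48 hr. Viability was read as ATP luminescence.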
On the % scale 0 is the no-effect control and ±100 the full control effect; potency means the concentration at half of the fitted maximal effect; tags describe the fitted curve by direction and shape.

Row | Compound | activity change, negative = growth inhibition | Potency
1 | COC(=O)c1ccccc1NC(=O)CN1CCC(C)CC1 | inactive: 12.9% | 
2 | CCc1ccc(CN2CCN(C(=O)c3cccc(OC)c3OC)CC2)cc1 |  | inconclusive [inhibitor, single point]
3 | COc1cccc(CNCCO)c1OCc1ccc(Cl)cc1 |  | inconclusive [inhibitor, single point]
4 | O=[N+]([O-])c1ccc(S(=O)(=O)N/N=C/c2ccsc2)cc1 | inactive: -13.5% | 
5 | COc1cc(SC)ccc1C(=O)Nc1ccc(Br)cn1 |  | inconclusive [inhibitor, single point]
6 | COCCC1CCCCN1C(=O)c1ccc2nc(Cc3ccccc3F)oc2c1 (stereo not given) |  | inconclusive [inhibitor, single point]
7 | CCCCCCCC(=O)Nc1cc(C(=O)NCCC)ccc1N1CCC2(CC1)CC(c1ccccc1)=NO2 |  | inconclusive [inhibitor, single point]
8 | COc1ccc(NC(=O)CCn2c(=O)c3cccn3c3ccccc32)cc1 |  | inconclusive [inhibitor, partial curve]
9 | CCn1c(SCC(=O)N2CCC(C)CC2)nc2c(c1=O)SCC2 |  | inconclusive [inhibitor, partial curve]
10 | COc1ccc(Oc2ncc3ncc(=O)n(Cc4ccc(F)cc4)c3n2)cc1 |  | inconclusive [inhibitor, single point]
11 | Cc1nc2c(OCc3ccc(F)c(F)c3)cccn2c1N(C)C(=O)CCC1CCCC1 |  | inconclusive [inhibitor, single point]
12 | CCCNC(=O)C(Cc1ccccc1)NC(=O)c1ccc(C(C)(C)C)cc1 (stereo not given) |  | inconclusive [inhibitor, single point]
13 | COc1cc(/C=N/NC(=O)c2cccc(NC(=O)c3ccccc3)c2)ccc1O | inactive: -11.1% | 
14 | CC(=O)Nc1cnc(-c2cc(C)c(O)c(C)c2)cn1 |  | inconclusive [inhibitor, partial curve]
15 | CCN1/C(=C2\OC(=S)N(C)C2=O)Sc2ccccc21 | inactive: -9.12% | 
16 | O=C(CSc1ccccc1F)NCCN1C(=O)CSC1=O | inactive: -0.21% | 
17 | O=[N+]([O-])c1ccccc1/C=N/Nc1nccnc1Cl | inactive: 0.0742% | 
18 | CSc1ccccc1C(=O)C1CCCN(C(=O)c2ccc(N3CCOCC3)cc2)C1 (stereo not given) |  | inconclusive [inhibitor, single point]
19 | Cn1sc(NC(=O)c2cccc(Cl)c2)nc1=O |  | inconclusive [inhibitor, single point]
20 | CC(=O)Cc1nsc(NC(=O)c2ccc(-c3ccccc3Cl)o2)n1 |  | inconclusive [inhibitor, single point]
